Test results: PubChem BioAssay AID881 (National Center for Advancing Translational Sciences (NCATS), 2007)
In all, about 110,000 compounds went through this assay and about 610 (0.55%) were called active. The inconclusive results got no clear call from the source; some entries with a clear call stand among them for comparison. Calls follow the shape of the dose curve; as a rule, active = well fitted inhibition curve with a large enough effect; inconclusive = small, poorly fitted or top-dose-only effect; inactive = no such curve, though single readings can be large or run the other way. Where the call is inconclusive, the potency comes from a doubtful curve fit.
% is scaled to controls: 0 for no effect and ±100 for the full control effect; potency is read from the fitted curve at half-maximal effect; tags tell the direction and shape of the fitted curve.
Also: nearly all actives have a fitted effect of over 60% in size.

These compounds were tested against Polyunsaturated fatty acid lipoxygenase ALOX15B (Homo sapiens) (UniProt O15296) (assay: qHTS Assay for Inhibitors of 15-hLO-2 (15-human lipoxygenase 2)). Conditions: purified 15hLO-2, xylenol orange hydroperoxide absorbance; activity change, negative = inhibition: at 57.1 µM (top of the series) unless noted.
Chain of UniProt O15296 (O15296 whole entry, looked up): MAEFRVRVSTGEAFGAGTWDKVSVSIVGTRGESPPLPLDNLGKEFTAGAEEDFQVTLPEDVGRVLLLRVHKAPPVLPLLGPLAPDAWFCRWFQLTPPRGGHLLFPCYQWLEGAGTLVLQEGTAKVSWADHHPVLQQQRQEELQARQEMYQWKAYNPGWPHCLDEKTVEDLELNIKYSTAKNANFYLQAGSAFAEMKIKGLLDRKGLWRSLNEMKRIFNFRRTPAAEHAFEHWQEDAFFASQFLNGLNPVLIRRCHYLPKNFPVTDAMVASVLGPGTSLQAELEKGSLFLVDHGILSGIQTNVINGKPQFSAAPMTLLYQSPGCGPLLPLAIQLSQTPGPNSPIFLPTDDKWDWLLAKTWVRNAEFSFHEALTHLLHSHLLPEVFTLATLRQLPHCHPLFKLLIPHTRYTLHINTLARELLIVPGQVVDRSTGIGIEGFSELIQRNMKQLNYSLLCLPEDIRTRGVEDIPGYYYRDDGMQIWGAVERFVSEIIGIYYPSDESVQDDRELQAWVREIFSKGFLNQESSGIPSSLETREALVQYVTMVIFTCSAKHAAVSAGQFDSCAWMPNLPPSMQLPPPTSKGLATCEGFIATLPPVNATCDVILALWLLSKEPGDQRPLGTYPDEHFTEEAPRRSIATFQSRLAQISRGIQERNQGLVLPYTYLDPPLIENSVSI
Description: Assay Overview: NIH Molecular Libraries Screening Centers Network [MLSCN] NIH Chemical Genomics Center [NCGC] MLSCN Grant: MH081283-01A1 PI Name: Holman, T.R., University of California, Santa Cruz Human lipoxygenase 15hLO-2 is a member of the closely related lipoxygenase family of enzymes which catalyze the site-specific oxidation of arachidonic acid to various hormone precursor molecules and as such is a candidate for drug development in a variety of disease areas, such as cancer and inflammation. Inhibition of 15hLO-2 activity was screened by utilizing arachidonic acid as a substrate. The extent of hydroperoxide product formation was measured by a secondary chromogenic reaction in which xylenol orange (XO, Sigma-Aldrich, cat. number 39,818-7) reacts with the ferric ions produced from the reaction between the hydroperoxide and ferrous ions. The Fe(III)-XO complex is characterized with red-shifted absorbance at 560 nm. A purified preparation of human 15hLO-2 was supplied by Professor Ted Holman, University of California, Santa Cruz.
Assay Protocol: Buffer: 25 mM Hepes pH 7.5, 0.01% Triton X-100. Reagents/Controls: Buffer in columns 3 and 4 as negative control (no enzyme). Substrate solution: 45 uM arachidonic acid (Sigma-Aldrich, St. Louis, MO) final concentration dispensed throughout the plate. Enzyme: 50 nM 15hLO-2 final concentration in columns 1, 2, 5-48. Column 1 is neutral (100% activity). Column 2 contained pin-transferred titration of NDGA (nordihidroguaiaretic acid, Sigma-Aldrich, N 5023, top concentration 10 mM in DMSO, then 1:2 dilution in duplicate). (Dilution factor: 23 nL into 4 uL.) Chromogenic detection reagent (divalent iron/xylenol orange, Fe-XO): 200 uM xylenol orange plus 300 uM ferrous ammonium sulfate prepared freshly in 50 mM sulfuric acid. Assay Steps: Three uL of enzyme were dispensed to 1536-well Greiner black clear bottom plates. Compounds and controls (23 nL) were transferred via Kalypsys PinTool. The plates were incubated for 15 min at room temperature, and then 1 uL of substrate solution was added to start the reaction. After room temperature incubation for 90 minutes, 4 uL of Fe-XO solution was added to each well followed by a short spin (1000 rpm, 15 sec) and the plates were then incubated for 30 min. The absorbance at 405 and 573 nm were measured using ViewLux (Perkin-Elmer) High-throughput CCD imager and absorbance protocol settings. The 573-to-405 absorbance ratio was used to compute reaction progress.
For `COc1ccc(/C=N/NC(=O)c2nn(-c3ccccc3)c(=O)c3c(N)scc23)cc1`, the Potency was inconclusive: 10 µM [inhibitor, partial curve].
In the case of `COc1ccc2c(c1)-c1c(ssc1=S)C(C)(C)N2C(=O)CSC1=NCCS1`, the Potency was inconclusive: 25.1 µM [inhibitor, partial curve].
In the case of `CC1=CC(C)(C)Nc2ccccc21`, the Potency was inconclusive: 20 µM [inhibitor, single point].
`Cc1nc2ccccn2c1C(=O)NC1CCCCC1` was tested, and the “activity change, negative = inhibition” value was inactive: 5.48%.
`CC(C)=CCC[C@](C)(O)C1CC=C(C)CC1` (stereo partly specified) was tested, and the “activity change, negative = inhibition” value was inactive: -9.71%.
`O=c1c2c3c(sc2n2cnnc2n1C1CCCCC1)CCC3` was tested, and the “activity change, negative = inhibition” value was inactive: -7.71%.
`COC(=O)N1CCC[C@@]2(CCN(C(=O)Nc3cccc(F)c3)C2)C1` was tested, and the “activity change, negative = inhibition” value was inactive: 6.83%.
With `O=[N+]([O-])c1cc(-c2ccc(/C=N/c3nc4ccccn4c3-c3ccco3)o2)ccc1Cl` the Potency was inconclusive: 20 µM [inhibitor, partial curve].
In the case of `Cc1ccc(C)c(/C=N/NC(=S)NCCc2ccccc2)c1`, the Potency was inconclusive: 10 µM [inhibitor, partial curve].
In the case of `CCOc1ccc(-c2nc(=S)[nH][nH]2)cc1`, the Potency was inconclusive: 39.8 µM [inhibitor, single point].
`CCN1CC(O)=C(c2nc3ccccc3s2)C1=N` was tested, and the “activity change, negative = inhibition” value was inactive: -1.17%.
In the case of `O=C(CSc1ncccc1-c1nc2ccccc2[nH]1)N1CCN(c2ccccc2F)CC1`, the “activity change, negative = inhibition” value was inactive: 7.61%.
With `COc1ccc(NC(=O)CSc2nc3sc(C)c(C)c3c(=O)n2Cc2ccco2)cc1` the Potency was inconclusive: 25.1 µM [inhibitor, single point].
`NC(=O)c1c(NC(=O)CSc2nnc(-c3ccco3)n2-c2ccccc2)sc2c1CCC2` was tested, and the Potency was inconclusive: 10 µM [inhibitor, partial curve].
`Cc1ccc(CO/N=C\Cc2snc(Sc3ncc(C(F)(F)F)cc3Cl)c2C#N)cc1` was tested, and the Potency was inconclusive: 15.8 µM [inhibitor, partial curve].
For `Cc1cc(NS(=O)(=O)c2ccc(NC(=S)NC(=O)c3ccc(Cl)cc3Cl)cc2)no1`, the Potency was inconclusive: 25.1 µM [inhibitor, partial curve].
`Nc1nc(=S)[nH]c2c1C1(CCCC1)Cc1ccccc1-2` was tested, and the Potency was inconclusive: 3.98 µM [inhibitor, partial curve].
In the case of `O=C(Nc1ccc2c(c1)OCO2)OCc1ccccc1`, the “activity change, negative = inhibition” value was inactive: 5.36%.
For `COc1cc(OC)c(C2CC(=O)N3CN(c4ccccc4)CSC3=C2C#N)cc1OC` (stereo unspecified), the Potency was active: 10 µM.
With `Cc1ccc(/C=C2\SC(=S)N(c3c(C)n(C)n(-c4ccccc4)c3=O)C2=O)cc1` the Potency was inconclusive: 31.6 µM [inhibitor, single point].
`O=C(Nc1ccc(S(=O)(=O)NC2CCCC2)cc1)c1cnccn1` was tested, and the activity change, negative = inhibition was inactive: -0.627% [at 2.29 µM].
With `O=C(c1ccc2ccccc2c1)N1CCN(c2ccc([N+](=O)[O-])c(N3CCOCC3)c2)CC1` the “activity change, negative = inhibition” value was inactive: -17.2%.
In the case of `COc1ccc(C2N(c3cc(Cl)ccc3OC)C(=O)C3CCCN32)cc1OC` (stereo unspecified), the “activity change, negative = inhibition” value was inactive: 3.07%.
With `CCOc1cc(/C=C2\C(=O)N(Cc3ccc(C)cc3)C(C)=C2C(=O)OC)ccc1O` the Potency was inconclusive: 10 µM [inhibitor, partial curve].
With `CSCCOC(=O)c1[nH]c2c(c1C)C(=O)CC(c1ccco1)C2` (stereo unspecified) the “activity change, negative = inhibition” value was inactive: -11.1%.
In the case of `CCC(=O)OCCNc1cc(Sc2nc3ccccc3s2)c2nonc2c1[N+](=O)[O-]`, the Potency was inconclusive: 3.16 µM [inhibitor, partial curve].
With `CSc1nc(N(CCO)CCO)c2sc3nc(-c4ccco4)c4c(c3c2n1)CCC4` the Potency was inconclusive: 3.98 µM [inhibitor, full curve].
In the case of `C[C@@H](NC(=O)/C(C#N)=C/c1ccc(O)c(O)c1)c1ccccc1`, the Potency was inconclusive: 31.6 µM [inhibitor, partial curve].
`COc1ccc(-c2nc3cnc(N4CCNCC4)nc3n(-c3ccccc3)c2=O)cc1` was tested, and the “activity change, negative = inhibition” value was inactive: 12.9%.
`CS(=O)(=O)c1sc2nc(-c3cccs3)cc(-c3ccccc3)c2c1N` was tested, and the Potency was inconclusive: 20 µM [inhibitor, partial curve].
In the case of `N#Cc1c(N)sc(=S)c2c1CCN(Cc1ccccc1)C2`, the “activity change, negative = inhibition” value was inactive: -24.9%.
In the case of `Cc1cc(SCC(=O)N/N=C/c2ccc(O)c(O)c2O)c(C)cc1Br`, the Potency was inconclusive: 12.6 µM [inhibitor, partial curve].
With `CN1CCc2c(sc3c2C(=O)NC(c2cn(Cc4ccccc4)c4ccccc24)N3)C1` (stereo unspecified) the “activity change, negative = inhibition” value was inactive: 66.3%.
For `Nc1c(C(=O)NCc2ccco2)c2nc3ccccc3nc2n1CCc1ccc(F)cc1`, the Potency was inconclusive: 39.8 µM [inhibitor, single point].
`O=c1n(Cc2ccc(Cl)cc2)c2sc3c(c2c2ncnn12)CCCC3` was tested, and the Potency was inconclusive: 25.1 µM [inhibitor, single point].
For `Cc1ccc(O)c(NC(=O)c2cc3nc4c(c(C(F)(F)F)n3n2)CCc2ccccc2-4)c1`, the Potency was inconclusive: 15.8 µM [inhibitor, partial curve].
